Data published in the supplement of paper PMC6531468.
The list shows a part of the results. Values come from read counts of a selection and are noisy. Each score is taken over the longer molecules that contain the sequence shown.

Assays:
Experiment in all cases: 6-mer SELEX enrichment z-score vs GST control; IMP3 is the RNA-binding protein IGF2BP3; higher = more enriched by binding
[1] = system: IMP3 KH1-4; conditions: construct: KH1-4 (164-579); SELEX round: R4
Procedure: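 SELEX-seq with GST-tagged IMP3 KH1-4 (Pro164-Lys579) and an N40 RNA pool, round 4. 6-mer z-score of sequence-tag enrichment normalised to the corresponding GST SELEX round; RNA k-mers written as DNA (T for U).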

[2] = system: IMP3 RRM1-2; conditions: construct: RRM1-2 (1-163); SELEX round: R2
IMP3 RRM1-2, sequence (chain, as listed by the source): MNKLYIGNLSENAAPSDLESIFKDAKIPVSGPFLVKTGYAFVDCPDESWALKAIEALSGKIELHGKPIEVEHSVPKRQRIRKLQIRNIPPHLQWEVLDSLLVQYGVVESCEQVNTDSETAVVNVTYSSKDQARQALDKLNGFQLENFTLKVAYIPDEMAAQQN
Procedure: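 SELEX-seq with GST-tagged IMP3 RRM1-2 (Met1-Asn163) and an N40 RNA pool, round 2. 6-mer enrichment z-score normalised to GST SELEX. RNA written as DNA (T = U).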

[3] = molecular target: IMP3 full-length (UniProt O00425); conditions: construct: FL IMP3 (1-579); SELEX round: R4
UniProt O00425, sequence (O00425 whole entry): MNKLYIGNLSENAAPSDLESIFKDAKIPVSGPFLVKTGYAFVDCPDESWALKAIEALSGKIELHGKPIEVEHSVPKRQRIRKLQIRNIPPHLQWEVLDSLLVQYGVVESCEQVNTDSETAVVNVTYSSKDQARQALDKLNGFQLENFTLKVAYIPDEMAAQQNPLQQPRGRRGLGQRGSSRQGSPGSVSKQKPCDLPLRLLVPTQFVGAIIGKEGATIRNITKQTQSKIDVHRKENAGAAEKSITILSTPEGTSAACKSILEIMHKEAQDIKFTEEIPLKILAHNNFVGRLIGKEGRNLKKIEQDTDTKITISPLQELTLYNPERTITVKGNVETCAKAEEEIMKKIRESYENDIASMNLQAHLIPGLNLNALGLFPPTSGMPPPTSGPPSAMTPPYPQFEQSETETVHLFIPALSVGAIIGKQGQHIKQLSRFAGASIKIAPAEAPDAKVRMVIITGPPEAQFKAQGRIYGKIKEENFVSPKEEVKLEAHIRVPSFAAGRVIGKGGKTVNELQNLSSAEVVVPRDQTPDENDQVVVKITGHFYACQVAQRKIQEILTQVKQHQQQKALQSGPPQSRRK
Procedure: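 SELEX-seq with GST-tagged full-length IMP3 and an N40 RNA pool, round 4. Each 6-mer is scored as an enrichment z-score of sequence tags containing it, normalised to the matching GST SELEX round. RNA written as DNA (T = U).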

[4] = system: IMP3 KH1-2; conditions: construct: KH1-2 (164-376); SELEX round: R4
IMP3 KH1-2, sequence (chain, as listed by the source): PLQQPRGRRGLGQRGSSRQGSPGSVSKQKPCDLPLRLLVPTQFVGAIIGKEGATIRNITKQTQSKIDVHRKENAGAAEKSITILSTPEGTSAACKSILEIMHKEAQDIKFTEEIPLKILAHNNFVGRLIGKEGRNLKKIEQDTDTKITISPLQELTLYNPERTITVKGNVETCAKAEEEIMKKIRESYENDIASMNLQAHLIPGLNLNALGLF
Procedure: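 SELEX-seq with GST-tagged IMP3 KH1-2 (Pro164-Phe376) and an N40 RNA pool, round 4 (stringent 300/600 mM KCl washes). 6-mer z-score of sequence-tag enrichment normalised to the corresponding GST SELEX round; RNA k-mers written as DNA (T for U).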

[5] = system: IMP3 KH3-4; conditions: construct: KH3-4 (377-579); SELEX round: R4
IMP3 KH3-4, sequence (chain, as listed by the source): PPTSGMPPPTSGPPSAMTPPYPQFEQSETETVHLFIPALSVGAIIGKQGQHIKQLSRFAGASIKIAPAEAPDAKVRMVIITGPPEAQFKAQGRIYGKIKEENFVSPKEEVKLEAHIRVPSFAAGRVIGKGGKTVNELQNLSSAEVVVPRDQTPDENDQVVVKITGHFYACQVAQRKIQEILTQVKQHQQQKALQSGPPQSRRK
Procedure: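 SELEX-seq with GST-tagged IMP3 KH3-4 (Pro377-Lys579) and an N40 RNA pool, round 4. 6-mer z-score of sequence-tag enrichment normalised to the corresponding GST SELEX round; RNA k-mers written as DNA (T for U).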

IMP3 KH1-4, sequence (chain, as listed by the source): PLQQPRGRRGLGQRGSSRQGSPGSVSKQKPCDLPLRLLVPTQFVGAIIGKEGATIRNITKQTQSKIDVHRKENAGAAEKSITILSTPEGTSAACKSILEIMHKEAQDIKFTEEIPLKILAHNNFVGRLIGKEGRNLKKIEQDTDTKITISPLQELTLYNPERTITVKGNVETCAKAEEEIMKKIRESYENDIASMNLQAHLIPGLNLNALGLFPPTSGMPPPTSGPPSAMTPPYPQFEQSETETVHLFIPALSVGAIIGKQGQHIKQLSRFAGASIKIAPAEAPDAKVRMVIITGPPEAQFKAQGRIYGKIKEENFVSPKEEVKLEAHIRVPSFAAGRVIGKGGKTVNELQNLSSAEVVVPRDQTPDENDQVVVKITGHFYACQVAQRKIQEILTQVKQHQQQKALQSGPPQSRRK

Sequence	6-mer SELEX enrichment z-score [1]	6-mer SELEX enrichment z-score [2]	6-mer SELEX enrichment z-score [3]	6-mer SELEX enrichment z-score [4]	6-mer SELEX enrichment z-score [5]
TGTGCG	0.027	0.183	-0.091	-0.116	0.055
GGGGTT	0.363	0.513	0.355	0.601	0.651
TGTTTA	0.335	0.171	-0.111	0.244	0.574
CTGTGC	0.008	-0.009	-0.053	-0.061	-0.279
GAAAGA	0.058	-2.2	-1.28	-0.131	0.86
TGCTGC	0.703	0.214	0.245	0.685	0.32
GGAATG	0.974	-0.6	-0.095	0.666	1.07
GCGCAC	0.248	0.354	1.43	0.178	-0.139
CGGAAA	-0.455	-1.53	-0.876	-0.576	-0.012
CGGTCA	0.412	0.198	0.686	0.173	0.213
TGGCTG	0.419	0.292	0.335	0.33	0.4
GACGCT	-0.5	-0.3	-0.204	-0.379	-0.378
CCAGAT	0.22	-0.375	-0.158	0.17	0.061
TGTGTA	-0.18	0.016	-0.419	-0.26	0.019
CGGTTT	-0.085	0.338	-0.105	-0.129	0.107
AGCACT	-0.095	0.663	0.458	-0.189	-0.219
AGCTGC	0.093	0.026	0.115	0.065	-0.088
TTGGTG	-0.079	0.522	0.143	0.042	0.131
CTTCAA	0.11	0.682	0.224	0.241	-0.096
TCATCG	0.252	0.802	1.13	0.166	-0.013
